Results from paper PMC5979497.
These are yes or no findings as the source states them, for the method shown. In cells and extracts the contact can be indirect. Some entries that bind do so weakly or less than the wild type. For some assays here: Sequences can lack the tags named with a protein.

By UniProt entry, the sequences of proteins in these tests, tags left out.
UniProt P61589: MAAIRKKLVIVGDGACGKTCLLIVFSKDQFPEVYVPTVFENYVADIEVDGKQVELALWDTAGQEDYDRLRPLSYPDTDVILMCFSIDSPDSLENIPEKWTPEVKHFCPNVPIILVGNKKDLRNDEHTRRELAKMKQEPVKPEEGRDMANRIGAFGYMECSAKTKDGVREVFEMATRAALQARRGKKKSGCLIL
UniProt P61586: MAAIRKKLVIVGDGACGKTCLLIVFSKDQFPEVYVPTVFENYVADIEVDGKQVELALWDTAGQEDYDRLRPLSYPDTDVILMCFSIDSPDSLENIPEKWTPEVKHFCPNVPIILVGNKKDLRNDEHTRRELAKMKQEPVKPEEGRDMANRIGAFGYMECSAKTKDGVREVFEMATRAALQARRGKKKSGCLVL
UniProt Q9QUI0: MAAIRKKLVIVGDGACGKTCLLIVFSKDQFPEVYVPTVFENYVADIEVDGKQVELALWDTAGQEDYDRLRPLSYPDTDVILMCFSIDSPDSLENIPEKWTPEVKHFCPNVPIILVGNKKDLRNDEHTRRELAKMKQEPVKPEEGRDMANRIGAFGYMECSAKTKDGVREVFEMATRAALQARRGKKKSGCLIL

Legend:
[1] = molecular target: RhoA (endogenous in PC12 cells) (rat (endogenous in PC12)) (UniProt P61589); test: co-IP; lysates of PC12 cells stably expressing vector or GFP-tagged calsenilin (FL, NTF or CTF); immunoprecipitated with an anti-RhoA antibody, Western blot with anti-calsenilin, anti-p190RhoGAP and anti-RhoA; modified RIPA buffer, 50 mM Tris-HCl pH 7.4, 150 mM NaCl, 1% NP-40, 0.25% sodium deoxycholate, 1 mM EDTA, 4 °C
[2] = molecular target: RhoA (endogenous in HEK293 cells) (human (endogenous in HEK293)) (UniProt P61586); test: co-IP; lysates of HEK293 cells stably expressing vector or GFP-tagged calsenilin (FL, NTF or CTF); immunoprecipitated with an anti-RhoA antibody, Western blot with anti-calsenilin (1F11; 4E4), anti-p190RhoGAP and anti-RhoA; modified RIPA buffer, 150 mM NaCl, 1% NP-40, 4 °C
[3] = molecular target: RhoA (endogenous in mouse brain) (mouse (endogenous in brain)) (UniProt Q9QUI0); test: co-IP; whole brain lysates of wild-type and calsenilin-knockout mice; co-immunoprecipitation of RhoA with calsenilin (anti-4E4) and p190RhoGAP; modified RIPA buffer, 150 mM NaCl, 1% NP-40, 4 °C
[4] = molecular target: RhoA (endogenous in PC12 cells) (rat (endogenous in PC12)) (UniProt P61589); test: co-IP; lysates of PC12 cells expressing calsenilin preloaded with 0.1 mM GTPγS (compared with 1 mM GDP) after 10 mM EDTA, 15 min at 30 °C, stopped with 60 mM MgCl2; immunoprecipitated with an anti-RhoA antibody, Western blot with anti-calsenilin and anti-RhoA

binding [1] | binding [2] | binding [3] | binding [4] | Binder
no binding | no binding |  |  | GFP-tagged human calsenilin-NTF (pEGFP-N1-calsenilin-NTF, residues 1-64) (domain or fragment, UniProt Q9Y2W7 1-64) MQPAKEVTKASDGSLLGDLGHTPLSKKEGIKWQRPRLSRQALMRCCLVKWILSSTAPQGSDSSD
 |  | binds |  | p190 Rho GTPase-activating protein (endogenous in mouse brain) (protein, UniProt Q91YM2 1-1499) MMMARKQDVRIPTYNISVVGLSGTEKEKGQCGIGKSCLCNRFVRPSADEFHLDHTSVLSTSDFGGRVVNNDHFLYWGEVSRSLEDCVECKMHIVEQTEFIDDQTFQPHRSTALQPYIKRAAATKLASAEKLMYFCTDQLGLEQDFEQKQMPDGKLLVDGFLLGIDVSRGMNRNFDDQLKFVSNLYNQLAKTKKPIVVVLTKCDEGVERYIRDAHTFALSKKNLQVVETSARSNVNVDLAFSTLVQLIDKSRGKTKIIPYFEALKQQSQQIATAKDKYEWLVSRIVKNHNENWPSVSRKMQASPEYQDYVYLEGTQKAKKLFLQHIHRLKHEHIERRRKLYLAALPLAFEALIPNLDEVDHLSCIKAKKLLETKPEFLKWFVVLEETPWDATSHIDNMENERIPFDLMDTVPAEQLYETHLEKLRNERKRAEMRRAFKENLETSPFITPGKPWEEARSFIMNEDFYQWLEESVYMDIYGKHQKQIIDRAKEEFQELLLEYSELFYELELDAKPSKEKMGVIQDVLGEEQRFKALQKLQAERDALILKHIHFVYHPTKETCPSCPACVDAKIEHLISSRFIRPSDRNQKNSLSDLNIDRINLVILGKDGLARELANEIRALCTNDDKYVIDGKMYELSLRPIEGNVRLPVNSFQTPTFQPHGCLCLYNSKESLSYVVESIEKSRESTLGRRDNHLVHLPLTLILVNKRGDTSGETLHSLIQQGQQIASKLQCVFLDPASAGIGYGRNINEKQISQVLKGLLDSKRNLNLVSSTASIKDLADVDLRIVMCLMCGDPFSADDVLSPVLQSQTCKSSHCGSSNSVLLELPIGLHKKRIELSVLSYHSSFSIRKSRLVHGYIVFYSAKRKASLAMLRAFLCEVQDIIPIQLVALTDGAIDVLDNDLSREQLTEGEEIAQEIDGRFTSIPCSQPQHKLELFHPFFKDVVEKKNIIEATHMYDNVAEACSTTEEVFNSPRAGSPLCNSNLQDSEEDVEPPSYHLFREDATLPSLSKDHSKFSMELEGNDGLSFIMSNFESKLNNKVPPPVKPKPPVHFDITKDLSYLDQGHREGQRKSMSSSPWMPQDGFDPSDYAEPMDAVVKPRNEEENIYSVPHDSTQGKIITIRNINKAQSNGSGNGSDSEMDTSSLERGRKVSAVSKPVLYRTRCTRLGRFASYRTSFSVGSDDELGPIRKKEEDQASQGYKGDNAVIPYETDEDPRRRNILRSLRRNTKKPKPKPRPSITKATWESNYFGVPLTTVVTPEKPIPIFIERCIEYIEATGLSTEGIYRVSGNKSEMESLQRQFDQDHNLDLAEKDFTVNTVAGAMKSFFSELPDPLVPYSMQIDLVEAHKINDREQKLHALKEVLKKFPKENHEVFKYVISHLNKVSHNNKVNLMTSENLSICFWPTLMRPDFSSMDALTATRSYQTIIELFIQQCPFFFYNRPISEPPGAAPGSPSAMAPTVPFLTSTPATSQPSPPQSPPPTPQSPMQPLLSSQLQAEHTL
binds |  |  |  | p190 Rho GTPase-activating protein (endogenous in PC12 cells) (protein, UniProt P81128 1-1499) MMMARKQDVRIPTYNISVVGLSGTEKEKGQCGIGKSCLCNRFVRPSADEFHLDHTSVLSTSDFGGRVVNNDHFLYWGEVSRSLEDCVECKMHIVEQTEFIDDQTFQPHRSTALQPYIKRAAATKLASAEKLMYFCTDQLGLEQDFEQKQMPDGKLLVDGFLLGIDVSRGMNRNFDDQLKFVSNLYNQLAKTKKPIVIVLTKCDEGVERYIRDAHTFALSKKNLQVVETSARSNVNVDLAFSTLVQLIDKSRGKTKIIPYFEALKQQSQQIATAKDKYEWLVSRIVKSHNENWLSVSRKMQASPEYQDYVYLEGTQKAKKLFLQHIHRLKHEHIERRRKLYLAALPLAFEALIPNLDEVDHLSCIKAKKLLETKPEFLKWFVVLEETPWDETSHIDNMENERIPFDLMDTVPAEQLYETHLEKLRNERKRAEMRRAFKENLETSPFITPGKPWEEARSFIMNEDFYQWLEESVYMDIYGKHQKQIIDRAKEEFQELLLEYSELFYELELDAKPSKEKMGVIQDVLGEEQRFKALQKLQAERDALILKHIHFVYHPTKETCPSCPACVDAKIEHLISSRFIRPSDRNQKNSLSDPNIDRINLVILGKDGLARELANEIRALCTNDDKYVIDGKMYELSLRPIEGNVRLPVNSFQTPTFQPHGCLCLYNSKESLSYVVESIEKSRESTLGRRDNHLVHLPLTLILVNKRGDTSGETLHSLIQQGQQIASKLQCVFLDPASAGIGYGRNINEKQISQVLKGLLDSKRNLNLVSSTASIKDLADVDLRIVMCLMCGDPFSADDILSPVLQSQTCKSSHCGSSNSVLLELPIGVHKKRIELSVLSYHSSFSIRKSRLVHGYIVFYSAKRKASLAMLRAFLCEVQDIIPIQLVALTDGAIDVLDNDLSREQLTEGEEIAQEIDGRFTSIPCSQPQHKLELFHPFFKDVVEKKNIIEATHMYDNVAEACSTTEEVFNSPRAGSPLCNSNLQDSEEDVEPPSYHLFREDATLPSLSKDHSKFSMELEGNDGLSFIMSNFESKLNNKVPPPVKPKPPVHFEITKDLSYLDQGHREGQRKSMSSSPWMPQDGFDPSDYAEPMDAVVKPRNEEENIYSVPHDSTQGKIITIRNINKAQSNGSGNGSDSEMDTSSLERGRKVSAVSKPVLYRTRCTRLGRFASYRTSFSVGSDDELGPIRKKEEDQASQGYKGDNAVIPYETDEDPRRRNILRSLRRNTKKPKPKPRPSITKATWESNYFGVPLTTVVTPEKPIPIFIERCIEYIEATGLSTEGIYRVSGNKSEMESLQRQFDQDHNLDLAEKDFTVNTVAGAMKSFFSELPDPLVPYSMQIDLVEAHKINDREQKLHALKEVLKKFPKENHEVFKYVISHLNRVSHNNKVNLMTSENLSICFWPTLMRPDFSSMDALTATRSYQTIIELFIQQCPFFFYNRPISEPPGAAPGSPSAMAPTVPFLTSTPATSQPSPPQSPPPTPQSPMQPLLSSQLQAEHTL
 |  | binds |  | calsenilin (endogenous in mouse brain) (protein, UniProt Q9QXT8 1-256) MQRTKEAVKASDGNLLGDPGRIPLSKRESIKWQRPRFTRQALMRCCLIKWILSSAAPQGSDSSDSELELSTVRHQPEGLDQLQAQTKFTKKELQSLYRGFKNECPTGLVDEDTFKLIYSQFFPQGDATTYAHFLFNAFDADGNGAIHFEDFVVGLSILLRGTVHEKLKWAFNLYDINKDGCITKEEMLAIMKSIYDMMGRHTYPILREDAPLEHVERFFQKMDRNQDGVVTIDEFLETCQKDENIMNSMQLFENVI
binds | binds |  |  | GFP-tagged human calsenilin-CTF (pEGFP-N1-calsenilin-CTF, residues 65-256) (domain or fragment, UniProt Q9Y2W7 65-256) SELELSTVRHQPEGLDQLQAQTKFTKKELQSLYRGFKNECPTGLVDEDTFKLIYAQFFPQGDATTYAHFLFNAFDADGNGAIHFEDFVVGLSILLRGTVHEKLKWAFNLYDINKDGYITKEEMLAIMKSIYDMMGRHTYPILREDAPAEHVERFFEKMDRNQDGVVTIEEFLEACQKDENIMSSMQLFENVI
binds | binds |  | binds | GFP-tagged full-length human calsenilin (pEGFP-N1-calsenilin-FL, residues 1-256) (protein, UniProt Q9Y2W7 1-256) MQPAKEVTKASDGSLLGDLGHTPLSKKEGIKWQRPRLSRQALMRCCLVKWILSSTAPQGSDSSDSELELSTVRHQPEGLDQLQAQTKFTKKELQSLYRGFKNECPTGLVDEDTFKLIYAQFFPQGDATTYAHFLFNAFDADGNGAIHFEDFVVGLSILLRGTVHEKLKWAFNLYDINKDGYITKEEMLAIMKSIYDMMGRHTYPILREDAPAEHVERFFEKMDRNQDGVVTIEEFLEACQKDENIMSSMQLFENVI
 | binds |  |  | p190 Rho GTPase-activating protein (endogenous in HEK293 cells) (protein, UniProt Q9NRY4 1-1499) MMMARKQDVRIPTYNISVVGLSGTEKEKGQCGIGKSCLCNRFVRPSADEFHLDHTSVLSTSDFGGRVVNNDHFLYWGEVSRSLEDCVECKMHIVEQTEFIDDQTFQPHRSTALQPYIKRAAATKLASAEKLMYFCTDQLGLEQDFEQKQMPDGKLLVDGFLLGIDVSRGMNRNFDDQLKFVSNLYNQLAKTKKPIVVVLTKCDEGVERYIRDAHTFALSKKNLQVVETSARSNVNVDLAFSTLVQLIDKSRGKTKIIPYFEALKQQSQQIATAKDKYEWLVSRIVKNHNENWLSVSRKMQASPEYQDYVYLEGTQKAKKLFLQHIHRLKHEHIERRRKLYLAALPLAFEALIPNLDEIDHLSCIKAKKLLETKPEFLKWFVVLEETPWDATSHIDNMENERIPFDLMDTVPAEQLYEAHLEKLRNERKRVEMRRAFKENLETSPFITPGKPWEEARSFIMNEDFYQWLEESVYMDIYGKHQKQIIDKAKEEFQELLLEYSELFYELELDAKPSKEKMGVIQDVLGEEQRFKALQKLQAERDALILKHIHFVYHPTKETCPSCPACVDAKIEHLISSRFIRPSDRNQKNSLSDPNIDRINLVILGKDGLARELANEIRALCTNDDKYVIDGKMYELSLRPIEGNVRLPVNSFQTPTFQPHGCLCLYNSKESLSYVVESIEKSRESTLGRRDNHLVHLPLTLILVNKRGDTSGETLHSLIQQGQQIASKLQCVFLDPASAGIGYGRNINEKQISQVLKGLLDSKRNLNLVSSTASIKDLADVDLRIVMCLMCGDPFSADDILFPVLQSQTCKSSHCGSNNSVLLELPIGLHKKRIELSVLSYHSSFSIRKSRLVHGYIVFYSAKRKASLAMLRAFLCEVQDIIPIQLVALTDGAVDVLDNDLSREQLTEGEEIAQEIDGRFTSIPCSQPQHKLEIFHPFFKDVVEKKNIIEATHMYDNAAEACSTTEEVFNSPRAGSPLCNSNLQDSEEDIEPSYSLFREDTSLPSLSKDHSKLSMELEGNDGLSFIMSNFESKLNNKVPPPVKPKPPVHFEITKGDLSYLDQGHRDGQRKSVSSSPWLPQDGFDPSDYAEPMDAVVKPRNEEENIYSVPHDSTQGKIITIRNINKAQSNGSGNGSDSEMDTSSLERGRKVSIVSKPVLYRTRCTRLGRFASYRTSFSVGSDDELGPIRKKEEDQASQGYKGDNAVIPYETDEDPRRRNILRSLRRNTKKPKPKPRPSITKATWESNYFGVPLTTVVTPEKPIPIFIERCIEYIEATGLSTEGIYRVSGNKSEMESLQRQFDQDHNLDLAEKDFTVNTVAGAMKSFFSELPDPLVPYNMQIDLVEAHKINDREQKLHALKEVLKKFPKENHEVFKYVISHLNKVSHNNKVNLMTSENLSICFWPTLMRPDFSTMDALTATRTYQTIIELFIQQCPFFFYNRPITEPPGARPSSPSAVASTVPFLTSTPVTSQPSPPQSPPPTPQSPMQPLLPSQLQAEHTL
